Laboratory results: paper PMC4336329 (PLoS ONE, 2015)
Hit rate of the full screen: of about 310,000 compounds, about 14,000 (4.5%) showed an effect of 50% or more. The effect is printed as a negative number. This is one part of the list.

Each molecule was assayed against human ether-à-go-go-related gene (hERG) potassium channel (human, UniProt Q12809) (assay: primary screen, population patch clamp on CHO cells stably expressing hERG).
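Also: peak tail current of the secondary pulse compared with the same well before compound.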

human ether-à-go-go-related gene (hERG) potassium channel, sequence (Q12809 whole entry, looked up): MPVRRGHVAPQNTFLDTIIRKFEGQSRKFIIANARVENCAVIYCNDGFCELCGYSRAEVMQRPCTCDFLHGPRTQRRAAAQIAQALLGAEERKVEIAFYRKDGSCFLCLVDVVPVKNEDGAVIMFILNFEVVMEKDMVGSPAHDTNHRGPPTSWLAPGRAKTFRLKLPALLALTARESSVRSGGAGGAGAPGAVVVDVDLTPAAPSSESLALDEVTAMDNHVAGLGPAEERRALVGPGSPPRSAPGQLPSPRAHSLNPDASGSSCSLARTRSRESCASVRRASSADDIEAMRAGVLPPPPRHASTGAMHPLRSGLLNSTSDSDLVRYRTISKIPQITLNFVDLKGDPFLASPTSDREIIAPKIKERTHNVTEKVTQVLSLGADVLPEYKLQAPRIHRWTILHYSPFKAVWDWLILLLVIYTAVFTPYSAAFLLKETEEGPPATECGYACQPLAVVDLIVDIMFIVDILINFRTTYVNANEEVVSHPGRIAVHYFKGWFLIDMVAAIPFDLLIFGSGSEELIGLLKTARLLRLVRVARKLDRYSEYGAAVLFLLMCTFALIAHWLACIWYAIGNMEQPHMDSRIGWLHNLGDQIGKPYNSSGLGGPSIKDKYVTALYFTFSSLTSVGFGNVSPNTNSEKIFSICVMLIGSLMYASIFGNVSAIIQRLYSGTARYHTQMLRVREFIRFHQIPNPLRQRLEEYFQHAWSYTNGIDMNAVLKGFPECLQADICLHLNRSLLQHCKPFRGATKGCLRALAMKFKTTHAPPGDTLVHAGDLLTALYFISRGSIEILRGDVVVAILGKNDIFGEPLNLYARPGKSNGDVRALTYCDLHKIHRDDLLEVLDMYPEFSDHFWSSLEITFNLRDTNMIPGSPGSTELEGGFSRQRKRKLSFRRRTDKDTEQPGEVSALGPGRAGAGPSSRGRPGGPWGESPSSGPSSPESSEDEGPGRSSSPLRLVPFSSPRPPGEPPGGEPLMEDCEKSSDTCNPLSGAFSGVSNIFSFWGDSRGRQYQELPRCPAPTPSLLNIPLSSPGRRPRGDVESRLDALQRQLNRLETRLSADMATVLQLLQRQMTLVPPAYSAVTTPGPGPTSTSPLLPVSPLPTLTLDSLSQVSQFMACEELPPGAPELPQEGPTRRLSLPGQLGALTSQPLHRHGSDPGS

Row | Compound | hERG current change (%, negative = inhibition) at 10uM [%]
1 | CCOC(=O)C1(Cc2ccccc2)CCCN(CCO)C1 (stereo not drawn) | 6.18
2 | O=C(c1ccco1)[C@@H]1[C@@H]2C(=O)N(c3ccc(F)cc3)C(=O)[C@@H]2[C@H]2C=Cc3ccccc3N21 | -5.52
3 | O=C(Nc1ccc(F)cc1)c1nc(S(=O)(=O)Cc2ccccc2)ncc1Cl | 22.2
4 | CC(=O)Nc1cc2c3c(c1)CC(=O)N3CCC2 | 8.56
5 | Cc1ccc(C(C)C)c(OCc2n[nH]c(=S)o2)c1 | 14.5
6 | NC(=O)c1nnsc1Sc1c(C(N)=O)nnn1-c1cccc(N)c1 | 13.2
7 | CN(C)CCCNC(NC(=O)c1cccs1)C(Cl)(Cl)Cl (stereo not drawn) | -17.5
8 | O=C(NCc1ccc(Cl)cc1)C(=O)NCC1OCCCN1S(=O)(=O)c1cccs1 (stereo not drawn) | -14.3
9 | COCCN(CCOC)C(=O)C1CCCN(S(=O)(=O)c2ccc(NC(=O)OC)cc2)C1 (stereo not drawn) | -1.73
10 | COc1ccc(CN2C(=O)c3ccccc3C2C(=O)NCc2cccnc2)c(OC)c1 (stereo not drawn) | 3.3
11 | Cc1cc(C(=O)N/N=C/c2ccc(C)o2)c2ccccc2n1 | -10.8
12 | S=C(NCc1ccco1)NCC(c1ccco1)N1CCCCC1 (stereo not drawn) | -28.1
13 | COc1ccc(-c2nc(CN3CCCCC3c3nccn3C)c(C)o2)c(C)c1C (stereo not drawn) | -64.9
14 | O=C(Nc1ccccc1Cl)c1ccc(Cl)cc1Cl | 10.5
15 | COc1ccc(NS(=O)(=O)c2ccc(N3CCCC3)c(NC(=S)Nc3ccc(SC(F)F)cc3)c2)cc1 | 17.7
16 | O=C(O)CCCC(=O)Nc1ccccc1C(=O)N1CCCC1 | -3.58
17 | C=C(C)C1CCC(C)=C1CC(C)(C)/C=N\n1cnnc1 (stereo not drawn) | 29.3
18 | CCN(c1ccc(OC)cc1)S(=O)(=O)N1CCCC(C(=O)NCc2ccccc2Br)C1 (stereo not drawn) | -24.5
19 | O=C(NNC(=O)c1ccccc1O)c1ccc(NS(=O)(=O)c2ccc(F)c(F)c2)cc1 | 4.73
20 | CCOc1ccccc1NC(=O)COc1coc(CN2CCc3ccccc3C2)cc1=O | -23.6
21 | Nc1[nH]ncc1-c1ccccc1 | 0.435
22 | CC(=O)N(c1nc(/C=C\C(=O)O)cs1)c1ccccc1F | 5.24
23 | Cn1c(C(=O)OC(C(=O)NCc2ccco2)c2ccncc2)cc2sccc21 (stereo not drawn) | -43.5

Row | Compound | hERG current change (%, negative = inhibition) at 10uM [%]
24 | COc1ccc(S(=O)(=O)N2c3ccccc3OCC2CC(=O)O)cc1 (stereo not drawn) | 9.11
25 | CCOC(=O)N1CCC(NCCNC(=O)c2ccccc2Cl)CC1 | 8.65
26 | Cc1ccc(C)c(S(=O)(=O)N2CCN(C(=O)CCCc3c[nH]c4ccccc34)CC2)c1 | -7.19
27 | COc1cc(CNCCCN2CCOCC2)cc(Cl)c1OCC(=O)NC(C)(C)C.Cl | 10.3
28 | CCCCOc1ccc(CN=C(N)N)cc1Cl | -2.43
29 | COc1ccc(C(=O)Nc2cc(C)on2)c(OC)c1 | 15.2
30 | O=C(CCn1c(=O)oc2ccccc21)Nc1cccc(Br)c1 | 18.1
31 | O=C(NCCCN1CCCCC1)C1CC(=O)N(CCc2ccccc2)C1 (stereo not drawn) | 12.3
32 | O=C(NC1(C(F)(F)F)NC(=O)N(c2ccc(F)cc2)C1=O)c1cccs1 (stereo not drawn) | -10.3
33 | O=C(Nc1nnc(S(=O)(=O)Cc2ccc(F)cc2)s1)c1ccccc1F | 9.55
34 | Cc1ccc(-n2[nH]c(C)c(C=Nc3ccc4[nH]c(=O)[nH]c4c3)c2=O)cc1C | 8.38
35 | COCC(C)n1c(C)cc(C(=O)CSc2nnnn2C2CCCC2)c1C (stereo not drawn) | -33.2
36 | COc1ccc2cc(/C=N/NC(=O)CN(c3ccccc3C)S(=O)(=O)c3ccccc3)c(Cl)nc2c1 | -4.89
37 | Cc1cccc(NS(=O)(=O)c2ccc(-c3cnc(C4CC4)o3)cc2)c1C | 18.7
38 | Nc1nc(-c2c(Cl)cccc2Cl)no1 | 10.5
39 | Br.O=C(NCCNCc1ccccn1)c1ccco1 | 13.8
40 | Cc1ccc(NC(=S)NC2CCCC2)cc1 | 4.64
41 | O=C(COC(=O)C1CCN(S(=O)(=O)c2cccs2)CC1)Nc1ccccc1 | -30.4
42 | Cn1cccc1C(=O)OCc1csc(-c2ccccc2)n1 | -20.9
43 | COc1ccc(NC(=O)CCCCCN2C(=O)[C@@H]3Cc4ccccc4CN3C2=O)cc1Cl | -13.2
44 | COc1ccc(C2=NOC(C(=O)N(C)Cc3ccccc3)C2)cc1 (stereo not drawn) | -18.5
45 | CCOC(=O)N1N=C(c2ccc(C)cc2)CC1(O)C(F)(F)F (stereo not drawn) | -3.35
46 | Cc1cc([N+](=O)[O-])nn1CCCC(=O)NCc1ccccc1 | -5.8

Row | Compound | hERG current change (%, negative = inhibition) at 10uM [%]
47 | CN(C1CCCCC1)S(=O)(=O)c1ccc(Cl)c(C(=O)O)c1 | 3.74
48 | CCOC(=O)c1cnc2ccccc2c1NCc1ccco1 | -56.9
49 | COc1ccc(NC(=O)C2CCCN2C(=O)NCc2ccccc2)c(OC)c1 (stereo not drawn) | -0.626
50 | CCC(=O)Nc1c(C(=O)N2CCN(c3ccccn3)CC2)cnn1-c1ccc(C)cc1 | -21.7
51 | CNc1nnc(-c2ccc(N(C)C)cc2)s1 | 8.65
52 | Cc1cc(Cl)cc(Br)c1OCCCNCC(C)O (stereo not drawn) | -22.8
53 | CC(=O)C1=C(O)C(=O)N(c2cccnc2)C1c1ccc(Cl)cc1 (stereo not drawn) | 7.15
54 | Cn1c(=O)cc(OCCCC(=O)NCc2ccc(F)cc2Cl)c2ccccc21 | -15.1
55 | COC(=O)c1c(NC(C)=O)sc2c1CCCC2 | -7.09
56 | CCc1cc2c(CN3CCN(CCO)CC3)cc(=O)oc2cc1O | 15.6
57 | Cc1ccc(NC(=O)CSc2nc(NS(=O)(=O)c3ccc(C)cc3)cc(=O)[nH]2)cc1 | -3.61
58 | CCn1nccc1C(=O)Nc1ccccc1OC | 22.7
59 | NNC(=O)CNc1cccc(Cl)c1 | 15.4
60 | O=C(Cc1ccc(Cl)cc1)N1CCN(C(=O)c2ccco2)CC1 | -12.8
61 | CC(C)C(=O)Nc1ccc(N2CCN(C)CC2)c(F)c1 | 14.2
62 | Cc1ccc(/C=N\NC(=O)CC(=O)NCCc2ccccc2)cc1 | -2.82
63 | CCOc1ccc(C(=O)N[C@H](C(=O)Nc2ccc(OC)c(S(=O)(=O)N3CCOCC3)c2)C(C)C)cc1 | -21.2
64 | CC1Cc2ccccc2N1C(=O)CN(C)CC(=O)Nc1ccc(OC(F)(F)F)cc1 (stereo not drawn) | -25.8
65 | Cc1cc(C)n(-c2nc(SCCN(C)C)c3c4c(sc3n2)CCCC4)n1 | -53.7
66 | O=C(CCC(=O)N/N=C/c1ccco1)N/N=C/c1ccco1 | 16.9
67 | CSc1nnc2c(n1)OC(c1ccc(C(=O)O)cc1)N(C(C)=O)c1ccccc1-2 (stereo not drawn) | 1.33
68 | C=C1CN(Cc2ccccc2)S(=O)(=O)c2ccccc21 | -33.1
69 | O=[N+]([O-])c1ccc(N2CCN(S(=O)(=O)c3cnc[nH]3)CC2)cc1 | -59.8

Row | Compound | hERG current change (%, negative = inhibition) at 10uM [%]
70 | COC(=O)c1ccc(NC(=O)C[n+]2ccccc2C)cc1.[Cl-] | 10.1
71 | CO/N=C(\N)c1ccc([N+](=O)[O-])cc1 | 3.47
72 | COc1cc2c(C(=O)N3CCN(C4CCCCC4)CC3)cn(CC(C)C)c(=O)c2cc1OC | -63.3
73 | COC(=O)/C(=C\c1ccc(O)cc1)c1nc2ccccc2[nH]1 | 22.4
74 | CC(C)n1c2ccccc2c2nnc(SCC(=O)Nc3ccccc3C(=O)O)nc21 | 12.8
75 | CN(C)CCNc1ncnc2c1sc1nc(-c3ccccc3)c3c(c12)CCCC3 | -11.2
76 | COc1cc(C(=O)OC(C)CN2CCOCC2)cc(OC)c1OC.Cl (stereo not drawn) | -2.69
77 | Cc1ccc([N+](=O)[O-])cc1S(=O)(=O)N1CCCCC1C(=O)O (stereo not drawn) | 22.6
78 | COc1ccc(/C=C/C(=O)NCC(=O)N/N=C/c2cccnc2)cc1 | -14.9
79 | CCN(CC)CCN(C(=O)c1ccc(N2C(=O)CCC2=O)cc1)c1nc2cc3c(cc2s1)OCO3.Cl | -44.6
80 | N=C(N)c1ccc(O)cc1 | 26.1
81 | CCOC(=O)/C(=N\Nc1ncnc2ccccc12)c1ccc(OC)cc1 | 15
82 | COC(=O)c1ccc(NC(=O)Nc2ccc(OC)cc2)cc1 | 29.4
83 | NS(=O)(=O)c1ccc(CCNS(=O)(=O)c2ccccc2)cc1 | -0.299
84 | CCCN1C(=O)c2ccc(C(=O)Nc3cc(C)ccc3O)cc2C1=O | 16.9
85 | CCCCOCCCNC(=O)C1CCCCC1 | -1.13
86 | COc1ccc(S(=O)(=O)Nc2cc(C(=O)NC3CCCCCC3)ccc2N2CCOCC2)cc1 | -46.7
87 | CCCOc1ccc(C(C)=O)cc1CSCCC#N | -1.08
88 | CC(=O)N1CCc2cc(S(=O)(=O)Nc3ccc(C)cc3)ccc21 | 16.9
89 | CC(=O)C(Sc1ncnc2c1nnn2-c1ccc(F)cc1)C(=O)N(C)C (stereo not drawn) | 7.51
90 | COc1cc(NC(=O)c2nn(C)c3c2CS(=O)(=O)c2ccccc2-3)cc(OC)c1 | -11.4
